# Measured values published in patent US20190248885A1, “Neuronal and Oligodendrocyte Survival Modulation” (The Board of Trustees of the Leland Stanford Junior …, priority 2016, published 2019).
# Where a SMILES comes first, the peptide text is derived from it. The star is where a group is joined. Cbz = O=C(OCc1ccccc1)*; CH2F = FC*
# How the values were obtained:
# [1] = system: retinal ganglion cells (RGCs); assay: Survival/cell toxicity assay, RGCs; assay type: cell-based, rat; conditions: for prevention of A1 ACM-induced RGC death: RGCs treated with A1 ACM plus blocker; for toxicity to RGCs of ACM from astrocytes treated individually with the cytokine: viability at 24 h, not as great as full A1 ACM
# RGCs = assay: Optic nerve crush in mice; assay type: in vivo, mouse; conditions: PLX-3397 containing chow versus control chow
# astrocytes = assay: Astrocyte reactivity after systemic LPS injection (microfluidic qPCR); assay type: in vivo, mouse; conditions: for A1 reactive astrocyte response: systemic LPS injection
# astrocytes in the LGN = assay: In vivo synapse engulfment assay; parameters: species or system mouse; conditions: compared to saline-treated control animals
# purified astrocytes = assay: Reactive astrocyte transcript induction in purified cultured astrocytes (microfluidic qPCR); conditions: for induction of A1 reactive astrocyte transcripts/phenotype / A1 genes induced: purified astrocytes, serum-free culture; for induction of A1 reactive astrocyte transcripts/phenotype: microfluidic qPCR; for marker expression profile compared with in vivo A1 reactive astrocytes: in vitro treatment, FIG. 6; for A1 genes induced: single cytokine
# [2] = system: cells in purified cultures; assay: Direct cytokine toxicity in purified cultures; assay type: cell-based; conditions: data not shown
molecule,measurement,setting,value
NC(CCCP(=O)(O)O)C(=O)O [D-APS],prevention of A1 ACM-induced RGC death,[1],ineffective
NS(=O)(=O)c1cccc2c1c([N+](=O)[O-])cc1nc(O)c(O)nc12 [NBQX],prevention of A1 ACM-induced RGC death,[1],ineffective
CN1C(=O)C(Cc2c[nH]c3ccccc23)NC1=S (stereo not drawn) [Necrostatin],prevention of A1 ACM-induced RGC death,[1],did not preserve RGC viability
same,prevention of A1 ACM-induced RGC death,[1]; listed as necrostatin,could not be prevented
FC(F)(F)c1ccc(CNc2ccc(Cc3c[nH]c4ncc(Cl)cc34)cn2)cn1 [PLX-3397],number of RGCs in ONC mice,RGCs,no significant difference
N[C@@H](Cn1ccc(=O)n(Cc2ccccc2C(=O)O)c1=O)C(=O)O [UBP-296],prevention of A1 ACM-induced RGC death,[1],ineffective
COC(=O)C[C@H](NC(=O)[C@H](C)NC(=O)[C@@H](NC(=O)OCc1ccccc1)C(C)C)C(=O)CF [Z-VAD-FMK] (Cbz-Val-Ala-Asp(OMe)-CH2F),prevention of A1 ACM-induced RGC death,[1],able to protect
lipopolysaccharide [LPS],A1 reactivity of astrocytes in the LGN,"astrocytes; P3 mice, systemic LPS, 24 hours later",strongly polarized to an A1 reactive phenotype
same,A1 reactive astrocyte response,astrocytes; Csf1r−/− mice lacking microglia,failed to activate to an A1 phenotype
same,A1 reactive astrocyte response,astrocytes; wild type littermate controls,robust induction of an A1 reactive astrocyte response
same,loss of synaptic engulfment ability,astrocytes in the LGN,around 50%
same,induction of A1 reactive astrocyte transcripts/phenotype,purified astrocytes,they do not
"macrophage-activating lipopeptide-2 [Malp2, reference compound]",induction of A1 reactive astrocyte transcripts/phenotype,purified astrocytes,they do not
tumor necrosis factor alpha [TNFα],toxicity to RGCs of ACM from astrocytes treated individually with the cytokine,[1],toxic
same,death of cells caused directly by the cytokines,[2],did not cause death of cells in purified cultures
same,marker expression profile compared with in vivo A1 reactive astrocytes,purified astrocytes,less characteristic
same,A1 genes induced,purified astrocytes,about 25%
"interleukin 1 alpha (protein, UniProt P01583 113-271, looked up) Interleukin-1 alpha: SAPFSFLSNVKYNFMRIIKYEFILNDALNQSIIRANDQYLTAAALHNLDEAVKFDMGAYKSSKDDAKITVILRISKTQLYVTAQDEDQPVLLKEMPEIPKTITGSETNLLFFWETHGTKNYFTSVAHPNLFIATKQDYWVCLAGGPPSITDFQILENQA",toxicity to RGCs of ACM from astrocytes treated individually with the cytokine,[1],toxic
same,death of cells caused directly by the cytokines,[2],did not cause death of cells in purified cultures
same,marker expression profile compared with in vivo A1 reactive astrocytes,purified astrocytes,less characteristic
same,A1 genes induced,purified astrocytes,about 70%
